# Assay results from the supplement of paper PMC8728848.
# This is one part of the list.
# Key:
# Test in all cases: glycan array binding signal (z-score within array); higher = stronger binding
# Conditions in all cases: glycan notation: IUPAC condensed, linker removed
# GalNAc(b1-3)GalNAc = target: GalNAc(b1-3)GalNAc
# Procedure, shortened: (§1)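 Columns mapping to the same glycan were averaged after glycan names were converted to IUPAC-condensed notation. The data come from 3228 arrays in the Consortium for Functional Glycomics database, limited to those with an available protein sequence. Binding is reported as a within-array Z-score averaged across arrays of one protein sequence and across linkers.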
# GalNAc(b1-4)GlcNAc = target: GalNAc(b1-4)GlcNAc
# Procedure, shortened: as §1
# Glc(a1-4)Glc = target: Glc(a1-4)Glc
# Procedure, shortened: as §1
# Glc(a1-6)Glc(a1-6)Glc = target: Glc(a1-6)Glc(a1-6)Glc
# Procedure, shortened: as §1
# Glc(b1-4)Glc = target: Glc(b1-4)Glc
# Procedure, shortened: as §1
# Glc(b1-6)Glc = target: Glc(b1-6)Glc
# Procedure, shortened: as §1
# GlcA(b1-3)Gal = target: GlcA(b1-3)Gal
# Procedure, shortened: as §1
# GlcA(b1-3)GlcNAc = target: GlcA(b1-3)GlcNAc
# Procedure, shortened: as §1
# GlcA(b1-6)Gal = target: GlcA(b1-6)Gal
# Procedure, shortened: as §1
# [1] = target: GlcNAc(a1-3)Gal(b1-4)GlcNAc
# Procedure, shortened: as §1
# [2] = target: GlcNAc(a1-6)Gal(b1-4)GlcNAc
# Procedure, shortened: as §1
# [3] = target: GlcNAc(b1-2)Gal(b1-3)GalNAc
# Procedure, shortened: as §1
# [4] = target: GlcNAc(b1-2)Man(a1-3)[GlcNAc(b1-2)Man(a1-6)]Man(b1-4)GlcNAc(b1-4)GlcNAc
# Procedure, shortened: as §1
# GlcNAc(b1-3)Gal = target: GlcNAc(b1-3)Gal
# Procedure, shortened: as §1
# [5] = target: GlcNAc(b1-3)Gal(b1-3)GalNAc
# Procedure, shortened: as §1
# GlcNAc(b1-3)Gal(b1-4)Glc = target: GlcNAc(b1-3)Gal(b1-4)Glc
# Procedure, shortened: as §1
# [6] = target: GlcNAc(b1-3)Gal(b1-4)GlcNAc
# Procedure, shortened: as §1
# [7] = target: GlcNAc(b1-3)Gal(b1-4)GlcNAc(b1-3)Gal(b1-4)GlcNAc
# Procedure, shortened: as §1
# GlcNAc(b1-3)GalNAc = target: GlcNAc(b1-3)GalNAc
# Procedure, shortened: as §1
# GlcNAc(b1-3)Man = target: GlcNAc(b1-3)Man
# Procedure, shortened: as §1
# [8] = target: GlcNAc(b1-3)[GlcNAc(b1-4)][GlcNAc(b1-6)]GlcNAc
# Procedure, shortened: as §1
# [9] = target: GlcNAc(b1-3)[GlcNAc(b1-6)]Gal(b1-4)GlcNAc
# Procedure, shortened: as §1
# [10] = target: GlcNAc(b1-3)[GlcNAc(b1-6)]GalNAc
# Procedure, shortened: as §1
# [11] = target: GlcNAc(b1-4)Gal(b1-4)GlcNAc
# Procedure, shortened: as §1
# GlcNAc(b1-4)GlcNAc = target: GlcNAc(b1-4)GlcNAc
# Procedure, shortened: as §1
# [12] = target: GlcNAc(b1-4)GlcNAc(b1-4)GlcNAc
# Procedure, shortened: as §1
# [13] = target: GlcNAc(b1-4)GlcNAc(b1-4)GlcNAc(b1-4)GlcNAc(b1-4)GlcNAc
# Procedure, shortened: as §1
# [14] = target: GlcNAc(b1-4)GlcNAc(b1-4)GlcNAc(b1-4)GlcNAc(b1-4)GlcNAc(b1-4)GlcNAc
# Procedure, shortened: as §1
# [15] = target: GlcNAc(b1-4)[GlcNAc(b1-6)]GalNAc
# Procedure, shortened: as §1
# [16] = target: GlcNAc(b1-6)Gal(b1-4)GlcNAc
# Procedure, shortened: as §1
# GlcNAc(b1-6)GalNAc = target: GlcNAc(b1-6)GalNAc
# Procedure, shortened: as §1
# GlcNAc3Prop(b1-4)GlcNAc = target: GlcNAc3Prop(b1-4)GlcNAc
# Procedure, shortened: as §1
# Kdn(a2-3)Gal(b1-3)GlcNAc = target: Kdn(a2-3)Gal(b1-3)GlcNAc
# Procedure, shortened: as §1
# Kdn(a2-3)Gal(b1-4)GlcNAc = target: Kdn(a2-3)Gal(b1-4)GlcNAc
# Procedure, shortened: as §1
# [17] = target: Man(a1-2)Man(a1-2)Man(a1-3)Man
# Procedure, shortened: as §1
# [18] = target: Man(a1-2)Man(a1-2)Man(a1-6)[Man(a1-3)]Man
# Procedure, shortened: as §1
# Man(a1-2)Man(a1-3)Man = target: Man(a1-2)Man(a1-3)Man
# Procedure, shortened: as §1
# [19] = target: Man(a1-2)Man(a1-3)[Man(a1-2)Man(a1-6)]Man
# Procedure, shortened: as §1
# [20] = target: Man(a1-2)Man(a1-3)[Man(a1-2)Man(a1-6)]Man(a1-6)[Man(a1-2)Man(a1-2)Man(a1-3)]Man
# Procedure, shortened: as §1
# [21] = target: Man(a1-2)Man(a1-3)[Man(a1-2)Man(a1-6)]Man(a1-6)[Man(a1-2)Man(a1-2)Man(a1-3)]Man(b1-4)GlcNAc(b1-4)GlcNAc
# Procedure, shortened: as §1
# [22] = target: Man(a1-2)Man(a1-3)[Man(a1-6)]Man(a1-6)[Man(a1-2)Man(a1-3)]Man(b1-4)GlcNAc(b1-4)GlcNAc
# Procedure, shortened: as §1
# [23] = target: Man(a1-2)Man(a1-6)[Man(a1-3)]Man(a1-6)[Man(a1-2)Man(a1-2)Man(a1-3)]Man
# Procedure, shortened: as §1
# [24] = target: Man(a1-2)Man(a1-6)[Man(a1-3)]Man(a1-6)[Man(a1-2)Man(a1-2)Man(a1-3)]Man(b1-4)GlcNAc(b1-4)GlcNAc
# Procedure, shortened: as §1
# Man(a1-3)[Man(a1-6)]Man = target: Man(a1-3)[Man(a1-6)]Man
# Procedure, shortened: as §1
# [25] = target: Man(a1-3)[Man(a1-6)]Man(a1-6)[Man(a1-2)Man(a1-3)]Man(b1-4)GlcNAc(b1-4)GlcNAc
# Procedure, shortened: as §1
binder,measurement,setting,value
"mLPHN-1 (Mus musculus), Q80TR1 (protein) MARLAAALWSLCVTTVLVTSATQGLSRAGLPFGLMRRELACEGYPIELRCPGSDVIMVENANYGRTDDKICDADPFQMENVQCYLPDAFKIMSQRCNNRTQCVVVAGSDAFPDPCPGTYKYLEVQYDCVPYIFVCPGTLQKVLEPTSTHESEHQSGAWCKDPLQAGDRIYVMPWIPYRTDTLTEYASWEDYVAARHTTTYRLPNRVDGTGFVVYDGAVFYNKERTRNIVKYDLRTRIKSGETVINTANYHDTSPYRWGGKTDIDLAVDENGLWVIYATEGNNGRLVVSQLNPYTLRFEGTWETGYDKRSASNAFMVCGVLYVLRSVYVDDDSEAAGNRVDYAFNTNANREEPVSLAFPNPYQFVSSVDYNPRDNQLYVWNNYFVVRYSLEFGPPDPSAGPATSPPLSTTTTARPTPLTSTASPAATTPLRRAPLTTHPVGAINQLGPDLPPATAPAPSTRRPPAPNLHVSPELFCEPREVRRVQWPATQQGMLVERPCPKGTRGIASFQCLPALGLWNPRGPDLSNCTSPWVNQVAQKIKSGENAANIASELARHTRGSIYAGDVSSSVKLMEQLLDILDAQLQALRPIERESAGKNYNKMHKRERTCKDYIKAVVETVDNLLRPEALESWKDMNATEQVHTATMLLDVLEEGAFLLADNVREPARFLAAKQNVVLEVTVLNTEGQVQELVFPQEYPSENSIQLSANTIKQNSRNGVVKVVFILYNNLGLFLSTENATVKLAGEAGTGGPGGASLVVNSQVIAASINKESSRVFLMDPVIFTVAHLEAKNHFNANCSFWNYSERSMLGYWSTQGCRLVESNKTHTTCACSHLTNFAVLMAHREIYQGRINELLLSVITWVGIVISLVCLAICISTFCFLRGLQTDRNTIHKNLCINLFLAELLFLVGIDKTQYEVACPIFAGLLHYFFLAAFSWLCLEGVHLYLLLVEVFESEYSRTKYYYLGGYCFPALVVGIAAAIDYRSYGTEKACWLRVDNYFIWSFIGPVSFVIVVNLVFLMVTLHKMIRSSSVLKPDSSRLDNIKSWALGAIALLFLLGLTWAFGLLFINKESVVMAYLFTTFNAFQGVFIFVFHCALQKKVHKEYSKCLRHSYCCIRSPPGGTHGSLKTSAMRSNTRYYTGTQSRIRRMWNDTVRKQTESSFMAGDINSTPTLNRGTMGNHLLTNPVLQPRGGTSPYNTLIAESVGFNPSSPPVFNSPGSYREPKHPLGGREACGMDTLPLNGNFNNSYSLRSGDFPPGDGGPEPPRGRNLADAAAFEKMIISELVHNNLRGASGGAKGPPPEPPVPPVPGVSEDEAGGPGSADRAEIELLYKALEEPLLLPRAQSVLYQSDLDESESCTAEDGATSRPLSSPPGRDSLYASGANLRDSPSYPDSSPEGPNEALPPPPPAPPGPPEIYYTSRPPALVARNPLQGYYQVRRPSHEGYLAAPSLEGPGPDGDGQMQLVTSL",glycan array binding signal (z-score),GalNAc(b1-3)GalNAc,0.146
same,glycan array binding signal (z-score),GalNAc(b1-4)GlcNAc,0.132
same,glycan array binding signal (z-score),Glc(a1-4)Glc,-0.159
same,glycan array binding signal (z-score),Glc(a1-6)Glc(a1-6)Glc,0.283
same,glycan array binding signal (z-score),Glc(b1-4)Glc,-0.267
same,glycan array binding signal (z-score),Glc(b1-6)Glc,-0.288
same,glycan array binding signal (z-score),GlcA(b1-3)Gal,-0.144
same,glycan array binding signal (z-score),GlcA(b1-3)GlcNAc,-0.194
same,glycan array binding signal (z-score),GlcA(b1-6)Gal,0.017
same,glycan array binding signal (z-score),[1],-0.379
same,glycan array binding signal (z-score),[2],0.099
same,glycan array binding signal (z-score),[3],-0.412
same,glycan array binding signal (z-score),[4],-0.269
same,glycan array binding signal (z-score),GlcNAc(b1-3)Gal,0.059
same,glycan array binding signal (z-score),[5],0.047
same,glycan array binding signal (z-score),GlcNAc(b1-3)Gal(b1-4)Glc,-0.511
same,glycan array binding signal (z-score),[6],-0.133
same,glycan array binding signal (z-score),[7],-0.092
same,glycan array binding signal (z-score),GlcNAc(b1-3)GalNAc,-0.105
same,glycan array binding signal (z-score),GlcNAc(b1-3)Man,-0.07
same,glycan array binding signal (z-score),[8],-0.101
same,glycan array binding signal (z-score),[9],-0.059
same,glycan array binding signal (z-score),[10],-0.243
same,glycan array binding signal (z-score),[11],-0.419
same,glycan array binding signal (z-score),GlcNAc(b1-4)GlcNAc,-0.282
same,glycan array binding signal (z-score),[12],1.08
same,glycan array binding signal (z-score),[13],0.092
same,glycan array binding signal (z-score),[14],-0.216
same,glycan array binding signal (z-score),[15],0.911
same,glycan array binding signal (z-score),[16],-0.209
same,glycan array binding signal (z-score),GlcNAc(b1-6)GalNAc,-0.462
same,glycan array binding signal (z-score),GlcNAc3Prop(b1-4)GlcNAc,-0.326
same,glycan array binding signal (z-score),Kdn(a2-3)Gal(b1-3)GlcNAc,-0.263
same,glycan array binding signal (z-score),Kdn(a2-3)Gal(b1-4)GlcNAc,-0.338
same,glycan array binding signal (z-score),[17],-0.045
same,glycan array binding signal (z-score),[18],-0.024
same,glycan array binding signal (z-score),Man(a1-2)Man(a1-3)Man,-0.173
same,glycan array binding signal (z-score),[19],-0.476
same,glycan array binding signal (z-score),[20],-0.336
same,glycan array binding signal (z-score),[21],0.551
same,glycan array binding signal (z-score),[22],-0.424
same,glycan array binding signal (z-score),[23],-0.279
same,glycan array binding signal (z-score),[24],-0.101
same,glycan array binding signal (z-score),Man(a1-3)[Man(a1-6)]Man,-0.232
same,glycan array binding signal (z-score),[25],-0.233
